About 550 (1.1%) of roughly 48,000 compounds were called active. Inconclusive results (about 4%) are left out. No stated cut-off is given here; in the data, active means potency below about 15 µM; inconclusive means mostly about 16 µM to 33 µM; inactive means weaker than that. The list shows a part of the results. Where only a bound is given, the exact number is not on record here.
Potency means the concentration at half of the fitted maximal effect.

UniProt P04062, sequence (P04062 whole entry, looked up): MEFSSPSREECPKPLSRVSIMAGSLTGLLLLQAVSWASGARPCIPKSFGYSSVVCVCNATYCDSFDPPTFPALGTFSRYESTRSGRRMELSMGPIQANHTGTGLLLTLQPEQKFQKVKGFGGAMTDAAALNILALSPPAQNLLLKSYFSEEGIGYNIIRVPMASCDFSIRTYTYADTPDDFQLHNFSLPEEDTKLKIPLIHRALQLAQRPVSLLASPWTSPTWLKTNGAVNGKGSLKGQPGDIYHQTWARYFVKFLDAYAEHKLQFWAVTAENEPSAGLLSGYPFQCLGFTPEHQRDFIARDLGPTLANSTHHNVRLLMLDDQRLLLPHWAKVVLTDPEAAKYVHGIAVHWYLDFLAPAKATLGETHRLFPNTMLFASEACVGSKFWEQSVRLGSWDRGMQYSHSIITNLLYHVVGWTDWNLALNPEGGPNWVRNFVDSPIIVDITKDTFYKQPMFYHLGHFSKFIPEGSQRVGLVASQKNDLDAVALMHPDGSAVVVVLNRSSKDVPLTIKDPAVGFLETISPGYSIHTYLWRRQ

The target of this test is Lysosomal acid glucosylceramidase (Homo sapiens) (UniProt P04062). The test is described as follows: Glucocerebrosidase.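 Further: the screen sought inhibitors.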 The following applies: purified enzyme, resorufin glucoside fluorescence (screen aimed at inhibitors), 20 min. The method in brief:
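Normal human glucocerebrosidase (0.2 nM final) was assayed with resorufin β-D-glucopyranoside (30 uM final) in 50mM citric acid/KH2PO4, 10mM sodium taurocholate, 0.01% tween-20, pH 5.9. Compounds were titrated; fluorescence (Ex 548, Em 600) read after 20 min at RT.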
Consider `CCN(CCCNC(=O)C1CCCN(S(=O)(=O)CC)C1)c1cccc(C)c1` (stereo unspecified), for which the Potency is inactive: > 76.9 µM.

Consider `CSc1cccc(NC(=O)c2c(Cl)cnn2C)c1`, for which the Potency is inactive: > 76.9 µM.

For `COc1cc2c(C#N)c(N3CCN(c4ccccc4OC)CC3)nc(N)c2c(N)n1`, the Potency was inactive: > 76.9 µM.

For `CCOC(=O)CNC(=O)Cn1cnc2ccc(S(=O)(=O)N3CCC(C)CC3)cc2c1=O`, the Potency is inactive: > 76.9 µM.

In the case of `O=C(NCc1cccnc1)C1CCCN(S(=O)(=O)c2ccc(Cl)cc2)C1` (stereo unspecified), the Potency is inactive: > 76.9 µM.

With `Cc1ccc2c(c1)N(CCC(=O)NCc1ccccn1)C(=O)CO2`, the Potency was inactive: > 76.9 µM.

Turning to `COC(=O)CN(c1ccccn1)S(=O)(=O)c1ccccc1`, the Potency was inactive: > 76.9 µM.

With `CCN(CC)C(=O)C1CCN(Cc2ccc(Br)cc2)CC1`, the Potency was inactive: > 76.9 µM.

Turning to `COC(=O)c1c(C)cc(C)n2c1nc1ccccc12`, the Potency was inactive: > 76.9 µM.

As to `CC1CCCCC12NC(=O)N(Cn1nnc3ccccc3c1=O)C2=O` (stereo unspecified), the Potency was inactive: > 76.9 µM.

With `CCOC(=O)c1ccccc1NC(=O)c1ccccc1N(C)S(C)(=O)=O`, the Potency was inactive: > 76.9 µM.

Regarding `Cn1c(=O)c(C#N)c(-c2ccccc2)n2cnnc12`, the Potency was inactive: > 76.9 µM.

On to `NC(=O)Nc1ccc(Oc2c(F)c(F)c(F)c(F)c2F)cc1`, for which the Potency was inactive: > 76.9 µM.

Turning to `O=C(CSc1ccc2nnc(-c3cccc(F)c3)n2n1)NCc1ccco1`, the Potency was inactive: > 76.9 µM.

Take `CCCOc1ccc(-c2nnc(-c3ccco3)o2)cc1`: the Potency is inactive: > 76.9 µM.

Turning to `Cc1cc(C)n(C(=O)c2ccc(NC(=O)C3COc4ccccc4O3)cc2)n1` (stereo unspecified), the Potency was inactive: > 76.9 µM.

As to `COc1ccc2c(=O)c3c(=O)n(Cc4ccco4)c(-c4ccc(C)cc4)nc3oc2c1`, the Potency is inactive: > 76.9 µM.

As to `COc1ccc(Oc2cn[nH]c2-c2ccc(O)cc2O)cc1`, the Potency is inactive: > 76.9 µM.

`Cc1ccc(C(=O)Nc2ccccc2N2CCN(C(=O)C(C)C)CC2)cc1`: the Potency is inactive: > 76.9 µM.

As to `O=c1c2ccccc2n(Cc2ccc(Cl)cc2)c(=O)n1Cc1ccco1`, the Potency was inactive: > 76.9 µM.

As for `CCn1c(CSc2nnc(-c3ccoc3C)n2C)nc2cc(S(=O)(=O)N(C)C)ccc21`, the Potency was inactive: > 76.9 µM.

On to `CCSc1nnc(-c2cccc(S(=O)(=O)N(C)C)c2)n1-c1cc(OC)ccc1OC`, for which the Potency is inactive: > 76.9 µM.

On to `CCOC(=O)c1cccc(NC(=O)CCS(=O)(=O)c2cccc3nsnc23)c1`, for which the Potency is inactive: > 76.9 µM.

For the molecule `CCOc1ccccc1C(=O)N(CN1CCCC1=O)c1ccc(C)c(Cl)c1`, the Potency is inactive: > 76.9 µM.

As to `Cc1ccc(NC(=O)COC(=O)Cn2c(C)csc2=O)cc1C`, the Potency was inactive: > 76.9 µM.

In the case of `CCC(=O)N1CCN(c2cc(C)ccc2C)CC1`, the Potency was inactive: > 76.9 µM.

Take `Cc1ccccc1-n1nc2c(c1NC(=O)c1c(-c3ccccc3Cl)noc1C)CS(=O)(=O)C2`: the Potency was inactive: > 76.9 µM.

With `O=C(Nc1cnccn1)C1c2ccccc2Oc2ccccc21`, the Potency is inactive: > 76.9 µM.

For the molecule `N#Cc1c(N)nc2c(c1-c1ccncc1)CCCC2`, the Potency was inactive: > 76.9 µM.

On to `Cc1nc(NC(=O)c2oc3ccccc3c2C)sc1C(=O)N(C)C`, for which the Potency is inactive: > 76.9 µM.

Take `COc1ccc2cc(CN(CCc3ccccc3)Cc3nnnn3Cc3ccco3)c(=O)[nH]c2c1`: the Potency is inactive: > 76.9 µM.

`CCOC(=O)c1cc(CC)sc1NC(=O)Cc1ccsc1`: the Potency was inactive: > 76.9 µM.

Take `Cn1c(=O)[nH]c(=O)c2c1nc(NCCCn1ccnc1)n2Cc1ccc(F)cc1`: the Potency was inactive: > 76.9 µM.

Regarding `COc1ccc(-c2nnc(SCc3ncc(-c4ccccc4)o3)o2)cc1`, the Potency is inactive: > 76.9 µM.

Regarding `COc1ccccc1C(=O)Nc1c2c(nn1-c1cccc(C)c1C)CS(=O)(=O)C2`, the Potency is inactive: > 76.9 µM.

As for `Cc1cccc2[nH]c(-c3ccc(NC(=O)c4ccco4)cc3)nc12`, the Potency was inactive: > 76.9 µM.

Regarding `CCCC(c1nnnn1CCc1ccccc1)N1CCN(C(=O)c2ccco2)CC1` (stereo unspecified), the Potency was inactive: > 76.9 µM.

In the case of `Cc1ccc2c(CN3CCCc4ccccc43)cc(=O)oc2c1C`, the Potency is inactive: > 76.9 µM.

On to `O=C1c2cccnc2C(=O)N1Cc1ccc(F)cc1`, for which the Potency is inactive: > 76.9 µM.

Regarding `COc1ccc(CCN(C)CCN2C(=O)c3ccccc3C2=O)cc1OC`, the Potency was inactive: > 76.9 µM.

As for `O=C(CN1C(=O)C2C3C=CC(C3)C2C1=O)Nc1ccc2c(c1)OCCO2` (stereo unspecified), the Potency is inactive: > 76.9 µM.

Turning to `Cc1ccc2cc(CN(CC3CCCO3)S(=O)(=O)c3ccc4c(c3)OCCO4)c(=O)[nH]c2c1C` (stereo unspecified), the Potency is inactive: > 76.9 µM.

As to `O=C(CSCc1ccccc1)N1CCN(C(=O)c2ccco2)CC1`, the Potency is inactive: > 76.9 µM.

For `CC(C)C(NC(=O)C1CCCCC1)C(=O)NCc1ccccn1` (stereo unspecified), the Potency is inactive: > 76.9 µM.

In the case of `CCOC(=O)Cn1c(C(=O)OCC)cc2sccc21`, the Potency was inactive: > 76.9 µM.

With `CC(C(=O)c1ccccc1)n1c(N2CCOCC2)nc2c1c(=O)n(C)c(=O)n2C` (stereo unspecified), the Potency is inactive: > 76.9 µM.

Take `CCN(CC)CCn1c2ccccc2c2nc(C)sc21`: the Potency is inactive: > 76.9 µM.

With `Cc1nc2ccccc2c(=O)n1N`, the Potency is inactive: > 76.9 µM.

As for `Cc1cc(Nc2cccc(C(F)(F)F)c2)n2nc(C)nc2n1`, the Potency was inactive: > 76.9 µM.

On to `c1ccc(CSc2nnc(NC3=NCCCCC3)s2)cc1`, for which the Potency is inactive: > 76.9 µM.

Turning to `CCCCc1c(O)nc(SCC(=O)Nc2ccc3c(c2)CCC3)[nH]c1=O`, the Potency was inactive: > 76.9 µM.

`COC(=O)COc1ccc(-c2nn(C)c(=O)c3ccccc23)cc1`: the Potency is inactive: > 76.9 µM.

Consider `Cc1cccc(NC(=O)Cn2nnc(-c3cccs3)n2)c1C`, for which the Potency was inactive: > 76.9 µM.

In the case of `Nc1nonc1-c1noc(-c2ccc(Br)o2)n1`, the Potency is inactive: > 76.9 µM.

Take `c1cncc(-c2nn[nH]n2)c1`: the Potency is inactive: > 76.9 µM.

Turning to `CC(=O)c1n[nH]nc1Nc1nc(C)cc(C)n1`, the Potency was inactive: > 76.9 µM.

`CCCCP(=O)(c1ccccn1)c1ccccn1`: the Potency is inactive: > 76.9 µM.

`Cc1nn(C)cc1CN(C)C(=O)c1cc2nc(-c3ccco3)cc(C(F)(F)F)n2n1`: the Potency was inactive: > 76.9 µM.

Consider `COc1ccc(OC)c(-c2oc3ccccc3c(=O)c2O)c1`, for which the Potency is inactive: > 76.9 µM.

As for `O=C(O)C1C2C=CC(C2)C1C(=O)NC1CCS(=O)(=O)C1` (stereo unspecified), the Potency is inactive: > 76.9 µM.

Consider `Cc1nc2ccc(S(=O)(=O)Nc3ccccc3C)cc2s1`, for which the Potency is inactive: > 76.9 µM.

On to `CCOC(=O)N1CCC(Nc2c(N3CCN(c4cccc(C(F)(F)F)c4)CC3)c(=O)c2=O)CC1`, for which the Potency was inactive: > 76.9 µM.

In the case of `CCC12CN3CC(CC)(CN(C1)C3c1ccccc1Cl)C2O` (stereo unspecified), the Potency was inactive: > 76.9 µM.

As to `Cc1cc(C)c2nc3s/c(=C/c4ccc5c(c4)n(C)c(=O)n5C)c(=O)n3c2c1`, the Potency is inactive: > 76.9 µM.

As for `Cc1cc(C)cc(OCc2nnc(SCC(=O)OC3CCCCC3)o2)c1`, the Potency was inactive: > 76.9 µM.

`COc1ccc(-c2noc(CCCOc3ccccc3)n2)cc1OC`: the Potency is inactive: > 76.9 µM.

In the case of `Cc1cc2c(c(=O)o1)C(C13C=CC(CC1)C3)C(C#N)=C(N)O2` (stereo unspecified), the Potency is inactive: > 76.9 µM.

In the case of `O=C(COC(=O)Cn1[nH]c(=O)c2ccccc2c1=O)Nc1ccc2c(c1)OCO2`, the Potency is inactive: > 76.9 µM.

Consider `O=C(Nc1ccccc1C(=O)N1CCCCC1)c1cccc(S(=O)(=O)N2CCOCC2)c1`, for which the Potency is inactive: > 76.9 µM.

In the case of `O=C(Nc1ccc(F)cc1)N(Cc1nnc2n1CCCCC2)c1ccccc1`, the Potency was inactive: > 76.9 µM.

For `O=C(Nc1nc(-c2ccncc2)cs1)c1ccco1`, the Potency was inactive: > 76.9 µM.

Regarding `O=CN1CC(=O)N(c2ccccc2)c2c([nH]c3ccccc23)C1`, the Potency is inactive: > 76.9 µM.

For `Cc1ccccc1OCC(O)Cn1c(SC(C)C)nc2c1c(=O)[nH]c(=O)n2C` (stereo unspecified), the Potency is inactive: > 76.9 µM.

Consider `CCOc1ccc(-n2cc(C(=O)N3CCCCCC3)c3cc(OC)c(OC)cc3c2=O)cc1`, for which the Potency was inactive: > 76.9 µM.

Turning to `Cc1cc(C)n(CC(=O)NCc2cc(-c3nn(C)c(=O)c4ccccc34)ccc2C)n1`, the Potency is inactive: > 76.9 µM.

`CC(=O)Nc1cccc(-c2nc3ccc(NC(C)=O)cc3[nH]2)c1`: the Potency is inactive: > 76.9 µM.

Consider `Cc1cc(C(=O)Nc2c(F)cc(F)cc2Br)c(C)o1`, for which the Potency was inactive: > 76.9 µM.

For the molecule `CC(C(=O)N1CCOCC1)N1c2cccc3cccc(c23)S1(=O)=O` (stereo unspecified), the Potency is inactive: > 76.9 µM.

Regarding `Cc1nc2scc(-c3ccccc3)c2c(=O)n1N`, the Potency is inactive: > 76.9 µM.

In the case of `Cc1cnc(C(=O)Nc2nnc(C)s2)cn1`, the Potency is inactive: > 76.9 µM.

Consider `C=CCn1c(=O)c(C#N)cc2c(=O)n3ccccc3nc21`, for which the Potency is inactive: > 76.9 µM.

Take `O=C(CSc1nnc(Cc2ccccc2)o1)N1CCCc2ccccc21`: the Potency is inactive: > 76.9 µM.

For the molecule `Cc1ccccc1S(=O)(=O)Cc1ccc(C(=O)N2CCN(c3ccc(F)cc3)CC2)o1`, the Potency is inactive: > 76.9 µM.

In the case of `Cc1nc2nc(C)c(CCC(=O)NCCC3=CCCCC3)c(C)n2n1`, the Potency is inactive: > 76.9 µM.

In the case of `Nc1nsnc1C(=O)NCCO`, the Potency is inactive: > 76.9 µM.

Regarding `Cc1nc(NCC2CCCO2)c2oc3ccccc3c2n1` (stereo unspecified), the Potency was inactive: > 76.9 µM.

On to `COc1ccc(-c2cc(-c3cc(F)ccc3O)[nH]n2)cc1OC`, for which the Potency is inactive: > 76.9 µM.

On to `O=C(CSc1nc2ccccc2c(=O)n1NC(=O)Cc1ccccc1)NCc1ccco1`, for which the Potency was inactive: > 76.9 µM.

For `O=C(CCCn1c(=S)[nH]c2cc3c(cc2c1=O)OCO3)NC1CC1`, the Potency was inactive: > 76.9 µM.

For `CCCCCCNC(=O)c1c(O)c2ccccc2[nH]c1=O`, the Potency is inactive: > 76.9 µM.

With `COC(=O)c1ccc2c(c1)S(=O)(=O)NC(=NCc1ccco1)S2`, the Potency was inactive: > 76.9 µM.

These data come from PubChem BioAssay AID360 (National Center for Advancing Translational Sciences (NCATS), 2006).
